Here are results for 31 compounds from ChEMBL document CHEMBL1201862, “PubChem BioAssay data set” (2004).

Each structure is given as a SMILES string.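 Interpolation was linear, between the two tested concentrations surrounding the appropriate level; five concentrations were tested over 48 hours in 96-well plates. GI50 marks 50% less growth.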 Active and inactive are the calls of the source. No stated cut-off is given here; in the data, active = GI50 up to about 1.1 µM and inactive = higher.

The test system of the assay is NCI-H322M. The assay is described as follows: DTP human tumour cell line panel, 48 h.
Take `COc1ccc(OC)c2nc3c(C(=O)NCCN(C)C)cccc3nc12`: the GI50 was inactive: 3.05 µM.
With `CC(=O)CN/C(C)=N/Nc1ccc([N+](=O)[O-])cc1[N+](=O)[O-]`, the GI50 was inactive: > 100 µM.
Under `CC(=O)C1=C(N=[N+]=[N-])c2cccc3cccc(c23)C1=O` stands inactive: 21.3 µM; under `Cc1cc(C)c(S(=O)(=O)N(CCCCCCN)OCCCON(CCCCCCN)S(=O)(=O)c2c(C)cc(C)cc2C)c(C)c1`, inactive: 1.66 µM; under `O=C(Cc1nc2ccccc2s1)C(=O)Nc1ccccc1C(F)(F)F`, inactive: > 100 µM.
Under `N#C/C(c1nc2ccccc2[nH]1)=c1\s/c(=C/c2ccccc2)c(=O)n1-c1ccccc1` stands inactive: > 100 µM.
With `CCOC(=O)CC[C@H](N)C(=O)N[C@@H](Cc1ccc(N(CCCl)CCCl)cc1)C(=O)OCC`, the GI50 is inactive: 6.4 µM.
The figure for `O=C1C2=C(N[C@@H](c3ccccc3)[C@H](c3ccccc3)N2)C(=O)c2ccccc21` is inactive: > 100 µM.
The figure for `c1ccc2c(c1)SC1=Nc3sc4ccccc4[n+]3CN12` is inactive: 32.1 µM; for `CC(=O)Nc1cc(/C=C\C(=O)N2CC(CCl)c3c2cc(N)c2ccccc32)n(C)n1` (stereo unspecified) it is active: 0.0137 µM; for `O=C1/C(=C/c2ccc(Br)s2)NC(=S)N1CN1CCCCC1` it is inactive: 68.4 µM.
For the compound `c1ccc2c(c1)nc1n2CSCC1`, the GI50 was inactive: > 100 µM.
Regarding `CCOC(CI)O[C@@H]1C=C[C@H](OC(C)=O)C1` (stereo partly specified), the GI50 was inactive: > 100 µM.
Regarding `CCOC(=O)c1nnsc1NC(=O)Nc1ccc(Cl)cc1`, the GI50 was inactive: 32 µM.
As to `Cc1ccc2c(c1)CC1(Cc3cccc(C)c3C1=O)C2=O` (stereo unspecified), the GI50 was inactive: > 100 µM.
The figure for `CN(C(=O)c1ccc(Cl)s1)C(=S)N(C)C(=O)c1ccc(Cl)s1` is inactive: > 10 µM; for `CCCN1CN(C(C(=O)N[C@@H]2C(=O)N3C(C(=O)O)=C(C)CSC23)c2ccc(O)cc2)CSC1=S` (stereo partly specified) it is inactive: > 100 µM.
The figure for `COc1cc2c(cc1OC)C(=O)C(C1=C(SC(=N)N)C(=O)c3cc(OC)c(OC)cc31)C2` (stereo unspecified) is inactive: > 100 µM; for `O=S1(=O)c2ccccc2-c2nccc3ccnc1c23` it is inactive: 28.8 µM.
Under `CCOC(=O)COc1ccc(OC)c2c1C(=O)CCC2` stands inactive: > 100 µM.
For `COc1ccc(C2NC(=S)Nc3c2c(=O)oc2c3ccc3ccccc32)cc1` (stereo unspecified), the GI50 was inactive: 52.1 µM.
Under `CN(C)C1(N(C)C)Oc2c(c(=O)n(C)c(=O)n2C)C(c2ccc(F)cc2)C1(F)F` (stereo unspecified) stands inactive: > 100 µM.
Under `COc1cccc(NC(=O)/C(Cc2nc3ccccc3nc2C)=N/NC(=O)C[n+]2ccccc2)c1` stands inactive: > 100 µM; under `N#CC1(c2nc3ccccc3o2)C(=O)C(=O)N(c2ccc(Cl)c(Cl)c2)C(=O)C1=O`, inactive: > 100 µM.
Regarding `NNC(=O)N/N=C1\C(=O)N(c2nccs2)C(=O)C(=O)C1c1nc2ccccc2s1` (stereo unspecified), the GI50 is inactive: > 100 µM.
The figure for `FC(F)(F)c1nc(-c2ccccc2)oc1Sc1nnc(Sc2oc(-c3ccccc3)nc2C(F)(F)F)s1` is inactive: > 100 µM; for `O=[N+]([O-])c1ccc(C2=Nn3c(nnc3-c3ccccc3)SC2)o1` it is inactive: 55.2 µM; for `O=C(Sc1n[nH]c(=O)[nH]c1=O)c1cccc2nc3ccccc3nc12` it is inactive: 16.8 µM.
Under `COc1ccc2c(c1)CCN=C2Cc1ccccc1CCCl` stands inactive: 60.3 µM.
Under `CCOC(=O)C1=NN(c2ccc([N+](=O)[O-])cc2)[C@@]2(C)C[C@]3(c4ccccc4)N(c4ccc([N+](=O)[O-])cc4)N=C(C(=O)OCC)N3c3ccccc3N12` stands inactive: > 100 µM; under `C[N+](C)(C)CC(=O)N/N=C(\C(=O)NC1=C(Cl)C(=O)c2ccccc2C1=O)C(C#N)c1csc(-c2ccc([N+](=O)[O-])cc2)n1` (stereo unspecified), inactive: > 100 µM.
